This data set relates to ATP. Put plainly: switch fluorescence ratio, 500 uM ATP over buffer (Cy3 cluster intensity, sum of 5 cycles each) (fold (ratio)); higher = stronger signal-on switching upon ATP binding; sequences stand for … in TCGTCGGCAGCGTCAGATGTGTATAAGAGACAGTTTTTTTTTTTTTTTTTTTTTTTTT…TC. Particulars: aptamer strand: ATP DNA aptamer (quencher-CACCTGGGGGAGTATTGCGGAGGAAGG + anchor), 100 nM annealed; ATP concentration: 500 uM; one replicate. In outline:
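Exposure to 500 uM ATP lasted 15 min at 22 °C before imaging, and a selection-buffer image was taken beforehand, for Cy3-labelled switching-strand clusters on a modified Illumina MiSeq flow-cell annealed to 100 nM quencher-labelled ATP aptamer. Five buffer/ATP cycles were run with NaOH stripping and re-annealing between them. The fluorescence ratio per cluster is summed target-cycle over summed buffer-cycle Cy3 intensity, averaged per switch-domain sequence. Clusters outside 100-1000 RFU were excluded.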

In the supplement of paper PMC10126150 one finds switch fluorescence ratio data, which are given here for 79 sequences.

Sequences with one replicate were seen in a single cluster, so their values are uncertain.

As to AATGCGTTAT, the switch fluorescence ratio came to 0.997.

As for AAGTGATCTG, the switch fluorescence ratio was determined as 1.03.

On to GTATGCCCCG, for which the switch fluorescence ratio stood at 1.01.

With TTTGAGTTTA, the switch fluorescence ratio worked out at 1.02.

Regarding GGCTGAGTCC, the switch fluorescence ratio came to 1.01.

As for CGCACCTTAT, the switch fluorescence ratio stood at 1.11.

For CGCAGACAAC, the switch fluorescence ratio came out at 1.61.

Take TCTTTACGGA: the switch fluorescence ratio turned out to be 1.

Regarding AACGATTTCG, the switch fluorescence ratio came out at 1.01.

For the sequence CCAATCCACT, the switch fluorescence ratio was determined as 1.04.

In the case of TATTGCGCGC, the switch fluorescence ratio worked out at 1.39.

For CCGAATCCTG, the switch fluorescence ratio amounted to 1.05.

Consider CGGATGTAAG, for which the switch fluorescence ratio amounted to 0.987.

In the case of GCGGGCAGTG, the switch fluorescence ratio was found to be 0.94.

As to TCATTTAGAC, the switch fluorescence ratio is 1.03.

Regarding GTGAAACGAG, the switch fluorescence ratio is 1.01.

On to CGATGGCTGA, for which the switch fluorescence ratio stood at 0.989.

As for ATCGAAGCGA, the switch fluorescence ratio was 1.14.

Consider ATTATTTCTG, for which the switch fluorescence ratio worked out at 0.974.

As for CCAGAAACTT, the switch fluorescence ratio was 1.06.

With CATTTGTTCG, the switch fluorescence ratio was 1.01.

Take ATAAGAAGGC: the switch fluorescence ratio turned out to be 0.991.

Regarding TAAGTGAAGT, the switch fluorescence ratio was 0.965.

On to CGGTTGTATT, for which the switch fluorescence ratio was 0.978.

Turning to AAGCTTAAAG, the switch fluorescence ratio stood at 0.919.

As for CCGCTATGTT, the switch fluorescence ratio was 3.35.

CGAGGGGGT: the switch fluorescence ratio was found to be 0.979.

With CGAGCAGAGG, the switch fluorescence ratio came to 1.13.

As for GAAATACACC, the switch fluorescence ratio came out at 1.2.

GGCACGCAGG: the switch fluorescence ratio was 1.03.

For TGGTGAGGCA, the switch fluorescence ratio came to 1.02.

As for CAGGGAGATG, the switch fluorescence ratio was determined as 0.985.

With GGGTCCGTGG, the switch fluorescence ratio was 1.01.

With TCTCGAATAT, the switch fluorescence ratio was 1.

Turning to CGGAGTTCTC, the switch fluorescence ratio was determined as 1.02.

Turning to AGTGACCGAG, the switch fluorescence ratio was 0.994.

In the case of TTTGAATTG, the switch fluorescence ratio amounted to 1.01.

For GGCGGAGTTT, the switch fluorescence ratio was found to be 1.

In the case of CATCGCCGGG, the switch fluorescence ratio is 0.993.

With TGGTCTCGCT, the switch fluorescence ratio is 1.01.

With AAGGGCAAGA, the switch fluorescence ratio is 0.986.

On to AAAATGCGAA, for which the switch fluorescence ratio turned out to be 1.08.

For the sequence CGGGCCGTGG, the switch fluorescence ratio came to 1.01.

As for CATTTATACT, the switch fluorescence ratio is 1.01.

For TAATTTAAT, the switch fluorescence ratio came out at 1.02.

Regarding AAGGTATA, the switch fluorescence ratio came out at 1.

Turning to GCGCCTTTGA, the switch fluorescence ratio was 1.02.

In the case of CGTCATAGCG, the switch fluorescence ratio was determined as 0.956.

Turning to CTGAGACGCT, the switch fluorescence ratio was 1.01.

For GTGGGTTTAT, the switch fluorescence ratio came out at 0.96.

ACTAGAGGGC: the switch fluorescence ratio turned out to be 1.03.

For AGGCGTTTGT, the switch fluorescence ratio turned out to be 0.99.

As for ATTAAGGCGT, the switch fluorescence ratio came to 0.997.

With AAGCACAAGT, the switch fluorescence ratio came out at 1.17.

For TCGTTCCAAC, the switch fluorescence ratio worked out at 1.03.

As to TAAATTTA, the switch fluorescence ratio worked out at 0.995.

Turning to CGGGTGCGTT, the switch fluorescence ratio is 0.959.

On to TCCGCCCTA, for which the switch fluorescence ratio worked out at 5.21.

Turning to CGGATTGGCA, the switch fluorescence ratio was 0.921.

For GTTTTGCTTG, the switch fluorescence ratio worked out at 1.02.

Consider TCTGGAGTGG, for which the switch fluorescence ratio came to 1.03.

For the sequence TCGCCACAAG, the switch fluorescence ratio was 1.22.

As to CATAGGTACG, the switch fluorescence ratio stood at 1.05.

Regarding TGTTATAGTG, the switch fluorescence ratio is 0.995.

In the case of AGTGGCTGCT, the switch fluorescence ratio is 0.953.

Turning to TGCCCCAAGG, the switch fluorescence ratio is 1.04.

On to GTTCAGTGT, for which the switch fluorescence ratio is 0.98.

Turning to ACGGTCGCCG, the switch fluorescence ratio worked out at 1.01.

Take GTCCTCGGGG: the switch fluorescence ratio worked out at 0.917.

Take ACTTTGATGG: the switch fluorescence ratio came out at 0.987.

On to TACCTCTCTA, for which the switch fluorescence ratio turned out to be 1.01.

As to ACAGTAGAAT, the switch fluorescence ratio was 1.02.

With ACTACAAGTG, the switch fluorescence ratio was determined as 1.05.

CTCGTGTCGA: the switch fluorescence ratio was 1.03.

As to TCGATACCAC, the switch fluorescence ratio was 1.05.

For the sequence ATTTCAGCCT, the switch fluorescence ratio turned out to be 1.06.

As to GGTGTGAGAC, the switch fluorescence ratio was determined as 0.978.

On to CGGCTAATGG, for which the switch fluorescence ratio turned out to be 0.989.

Take TGACAAAGCT: the switch fluorescence ratio stood at 1.05.
